{
  "source": "paper PMC4336329",
  "about": "(PLoS ONE, 2015)",
  "note": "The whole screen tested about 310,000 compounds, of which about 14,000 (4.5%) showed an effect of 50% or more. The effect is printed as a negative number. The list shows a part of the results.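 Also: peak tail current of the secondary pulse compared with the same well before compound.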",
  "data": [
    {"target": "human ether-à-go-go-related gene (hERG) potassium channel (human, UniProt Q12809)", "sequence (Q12809 whole entry, looked up)": "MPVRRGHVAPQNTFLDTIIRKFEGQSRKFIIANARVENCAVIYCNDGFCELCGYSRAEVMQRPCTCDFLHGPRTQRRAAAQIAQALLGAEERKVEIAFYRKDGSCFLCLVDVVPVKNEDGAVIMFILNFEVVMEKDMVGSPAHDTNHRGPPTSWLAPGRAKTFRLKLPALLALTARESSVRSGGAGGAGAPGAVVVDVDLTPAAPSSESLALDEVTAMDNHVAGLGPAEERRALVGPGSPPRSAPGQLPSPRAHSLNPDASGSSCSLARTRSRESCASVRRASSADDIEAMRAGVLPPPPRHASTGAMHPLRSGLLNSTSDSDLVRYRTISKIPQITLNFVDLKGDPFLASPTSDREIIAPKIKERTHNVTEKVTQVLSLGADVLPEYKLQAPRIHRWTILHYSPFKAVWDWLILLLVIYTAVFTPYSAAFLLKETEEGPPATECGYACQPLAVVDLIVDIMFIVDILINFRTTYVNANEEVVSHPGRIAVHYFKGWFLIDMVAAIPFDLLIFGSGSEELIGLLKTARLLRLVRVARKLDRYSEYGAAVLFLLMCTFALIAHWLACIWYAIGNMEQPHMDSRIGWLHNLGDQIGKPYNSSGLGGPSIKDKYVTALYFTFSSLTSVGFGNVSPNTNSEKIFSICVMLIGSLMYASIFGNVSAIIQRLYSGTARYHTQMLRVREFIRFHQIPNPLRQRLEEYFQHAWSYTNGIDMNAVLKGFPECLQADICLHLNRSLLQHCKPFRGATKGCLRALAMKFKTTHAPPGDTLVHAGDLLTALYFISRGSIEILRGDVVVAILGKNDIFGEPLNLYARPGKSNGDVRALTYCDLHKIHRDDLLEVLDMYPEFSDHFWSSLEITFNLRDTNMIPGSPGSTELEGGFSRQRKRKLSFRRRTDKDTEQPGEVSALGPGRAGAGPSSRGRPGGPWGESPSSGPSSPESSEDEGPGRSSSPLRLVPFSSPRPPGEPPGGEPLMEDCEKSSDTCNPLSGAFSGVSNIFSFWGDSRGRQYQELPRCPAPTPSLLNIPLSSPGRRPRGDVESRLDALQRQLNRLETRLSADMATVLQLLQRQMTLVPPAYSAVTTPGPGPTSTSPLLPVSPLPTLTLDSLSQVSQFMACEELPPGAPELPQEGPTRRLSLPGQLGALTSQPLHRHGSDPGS", "assay": "primary screen, population patch clamp on CHO cells stably expressing hERG", "units": {"hERG current change (%, negative = inhibition) at 10uM": "%"}, "values": [
      {"smiles": "C/C(N)=C(/C#N)C(=O)COC(=O)c1cccc2ccccc12", "hERG current change (%, negative = inhibition) at 10uM": -8.17},
      {"smiles": "CNC(=S)Nc1ccc2[nH]c(=O)[nH]c2c1", "hERG current change (%, negative = inhibition) at 10uM": 47.5},
      {"smiles": "CCC(=O)N1CCc2cc(S(=O)(=O)CCC(=O)Nc3nc(C)cs3)ccc21", "hERG current change (%, negative = inhibition) at 10uM": -15.5},
      {"smiles": "Cc1cc(F)c(F)c(C(=O)N2C(C)CCCC2C)c1Cl", "note": "(stereo not drawn)", "hERG current change (%, negative = inhibition) at 10uM": -21.7},
      {"smiles": "Cc1ccc(S(=O)(=O)NCCSc2ccccc2)cc1[N+](=O)[O-]", "hERG current change (%, negative = inhibition) at 10uM": -0.246},
      {"smiles": "CC(=O)c1ccc(Nc2c3c(c(C#N)c4nc5ccccc5n24)CCC3)cc1", "hERG current change (%, negative = inhibition) at 10uM": -73.2},
      {"smiles": "Cc1nnc(SCC(=O)Nc2ccc3c4c(cccc24)CC3)n1C", "hERG current change (%, negative = inhibition) at 10uM": 12.5},
      {"smiles": "CCCCC(=O)NC(=S)Nc1ccccc1N1CCCCC1", "hERG current change (%, negative = inhibition) at 10uM": -13.9},
      {"smiles": "Cc1ccc(S(=O)(=O)N2CCC(C(N)=O)CC2)cc1C(=O)NC1CCCCC1", "hERG current change (%, negative = inhibition) at 10uM": 18.9},
      {"smiles": "COc1cc(OC)c(C(=O)Nc2ccc3ccccc3c2)cc1OC", "hERG current change (%, negative = inhibition) at 10uM": 12.2},
      {"smiles": "CSCCC(NS(=O)(=O)c1ccc(C)cc1)C(=O)NC1CCCCCC1", "note": "(stereo not drawn)", "hERG current change (%, negative = inhibition) at 10uM": 10},
      {"smiles": "Cn1c2ccccc2c2cc(C(=O)NNS(=O)(=O)c3ccc(F)cc3)sc21", "hERG current change (%, negative = inhibition) at 10uM": -5.97},
      {"smiles": "Cc1ccccc1NC(=O)CCCn1nc(C)c2c(C)n(-c3ccccc3)nc2c1=O", "hERG current change (%, negative = inhibition) at 10uM": 3.18},
      {"smiles": "CCOC(=O)N1CCN(C(=O)CCCCCn2c(=S)[nH]c3cc4c(cc3c2=O)OCO4)CC1", "hERG current change (%, negative = inhibition) at 10uM": 28.1},
      {"smiles": "CC(C)[C@H](NC(=O)c1cccc(CN(Cc2ccccc2)C(=O)c2ccccc2)c1)C(=O)O", "hERG current change (%, negative = inhibition) at 10uM": 6.06},
      {"smiles": "Cc1ccc(OCCNC(=O)c2cncc(Br)c2)cc1C", "hERG current change (%, negative = inhibition) at 10uM": -1.46},
      {"smiles": "O=C(CCN1C(=O)/C(=C/c2ccc(Cl)cc2)SC1=S)Nc1cccc(C(=O)O)c1", "hERG current change (%, negative = inhibition) at 10uM": 10.4},
      {"smiles": "COC(=O)N/N=C/c1cc(C)n(-c2ccc(F)cc2)c1C", "hERG current change (%, negative = inhibition) at 10uM": 4.9},
      {"smiles": "CC(=O)Nc1ccc(S(=O)(=O)N2CCC(C(=O)NC3CC3)CC2)cc1", "hERG current change (%, negative = inhibition) at 10uM": 13},
      {"smiles": "Cc1ccc(NS(=O)(=O)c2ccc(NC(=O)c3ccccc3C(=O)O)cc2)cc1C", "hERG current change (%, negative = inhibition) at 10uM": 22.1},
      {"smiles": "COc1cc(CN2CCN(Cc3cn(C)c4ccccc34)CC2CCO)cc(OC)c1", "note": "(stereo not drawn)", "hERG current change (%, negative = inhibition) at 10uM": -43.7},
      {"smiles": "CCOC(=O)CNC(=O)c1c(C)nn(C)c1Cl", "hERG current change (%, negative = inhibition) at 10uM": 12.6},
      {"smiles": "CCOc1ccc(N2C(=O)/C(=C/c3ccc(C)o3)N(C)C2=S)cc1", "hERG current change (%, negative = inhibition) at 10uM": 10.5},
      {"smiles": "CCc1ccccc1NC(=O)Nc1c(C)n(C)n(-c2ccccc2)c1=O", "hERG current change (%, negative = inhibition) at 10uM": -20.9},
      {"smiles": "CCOC(=O)N1CCN(C(=O)Cc2ccccc2[N+](=O)[O-])CC1", "hERG current change (%, negative = inhibition) at 10uM": 11.2},
      {"smiles": "COc1cc(C2CC(=O)Nc3n[nH]c(-c4ccccc4)c32)cc(OC)c1OC", "note": "(stereo not drawn)", "hERG current change (%, negative = inhibition) at 10uM": -3.57},
      {"smiles": "Cc1ccc(Cn2nnc3c(=O)n(CC(=O)N4CCN(c5ccccc5)CC4)cnc32)cc1", "hERG current change (%, negative = inhibition) at 10uM": -21.4},
      {"smiles": "Cc1ccc2[nH]c3c(c2c1)CC/C(=C/c1ccccc1)C3=O", "hERG current change (%, negative = inhibition) at 10uM": 7.54},
      {"smiles": "CSc1nsc(SCC(=O)NCc2ccccc2)n1", "hERG current change (%, negative = inhibition) at 10uM": 12},
      {"smiles": "O=C(CSc1cccc2cccnc12)Nc1cccc(S(=O)(=O)N2CCOCC2)c1", "hERG current change (%, negative = inhibition) at 10uM": -16.4},
      {"smiles": "COc1ccc(OCCC(=O)OCC(=O)NC2CCCCCCC2)cc1", "hERG current change (%, negative = inhibition) at 10uM": -5.48},
      {"smiles": "Nn1cc(-c2ccccc2)nc1SCC(=O)Nc1cccc(S(N)(=O)=O)c1", "hERG current change (%, negative = inhibition) at 10uM": 4.38},
      {"smiles": "COc1cccc(OC)c1OCCCCN1CCCC1", "hERG current change (%, negative = inhibition) at 10uM": -2.47},
      {"smiles": "COc1ccc(S(=O)(=O)N2CCSC2C)cc1C", "note": "(stereo not drawn)", "hERG current change (%, negative = inhibition) at 10uM": 7.4},
      {"smiles": "COc1ccc2c(c1)-c1c(sn(-c3ccccc3)c1=S)C(C)(C)N2", "hERG current change (%, negative = inhibition) at 10uM": -1.28},
      {"smiles": "c1ccc(-c2nn3c(C4CCCCC4)nnc3s2)cc1", "hERG current change (%, negative = inhibition) at 10uM": -14.2},
      {"smiles": "Br.O=S(=O)(c1ccc(-c2csc(Nc3ccc(Br)cc3)n2)cc1)N1CCCC1", "hERG current change (%, negative = inhibition) at 10uM": 10.2},
      {"smiles": "Cc1ccc(CNC(=O)c2cn(C3CCCCC3)c(=O)c3c2c2ccccc2n3C)o1", "hERG current change (%, negative = inhibition) at 10uM": -2.58},
      {"smiles": "COC(=O)/C=c1/s/c(=C(\\C#N)C(=O)NCc2ccco2)n(-c2ccc(C)cc2)c1=O", "hERG current change (%, negative = inhibition) at 10uM": 10.2},
      {"smiles": "CC(C)(C)n1ncc2c(=O)n(CC(=O)N3CCc4ccccc43)cnc21", "hERG current change (%, negative = inhibition) at 10uM": -4.27},
      {"smiles": "O=C(O)c1ccccc1S(=O)(=O)NCC(O)COc1ccc(Br)cc1", "note": "(stereo not drawn)", "hERG current change (%, negative = inhibition) at 10uM": 7.48},
      {"smiles": "COc1cccc(-c2csc(N3CCN(C(=S)Nc4cccc(C)c4)CC3)n2)c1", "hERG current change (%, negative = inhibition) at 10uM": 29},
      {"smiles": "Cc1ccc(-n2nc3c(=O)n(CC(=O)NC4CCCCCC4)nc(C)c3c2C)cc1", "hERG current change (%, negative = inhibition) at 10uM": 5.97},
      {"smiles": "N#Cc1c(NC(=O)C2CC2)sc2c1CCCCC2", "hERG current change (%, negative = inhibition) at 10uM": -13.2},
      {"smiles": "Cc1ccccc1NC(=S)NCCO", "hERG current change (%, negative = inhibition) at 10uM": 11.6},
      {"smiles": "O=C(Cc1cccs1)N/N=C/c1ccccc1", "hERG current change (%, negative = inhibition) at 10uM": 3.83},
      {"smiles": "CCN1CCN(C(=O)CCc2nnc(CCCCc3ccccc3)o2)[C@@H](C)C1=O", "hERG current change (%, negative = inhibition) at 10uM": 16.5},
      {"smiles": "CCCN1C2CCCC1CC(NC(=O)NC1CCCCC1)C2", "note": "(stereo not drawn)", "hERG current change (%, negative = inhibition) at 10uM": -12.4},
      {"smiles": "CCN(Cc1ccncc1)C(=O)c1ccccc1NS(=O)(=O)c1ccc(Br)cc1", "hERG current change (%, negative = inhibition) at 10uM": -3.86},
      {"smiles": "COc1ccccc1C1CCN(Cc2ccc(Cl)c(Cl)c2)CC1", "hERG current change (%, negative = inhibition) at 10uM": 12.3},
      {"smiles": "O=C(NCc1ccccc1F)C12CC3CC(CC(C3)C1)C2", "hERG current change (%, negative = inhibition) at 10uM": 1.48},
      {"smiles": "Cc1ccc(OC(C)C(=O)Nc2ccccc2C(=O)N2CCOCC2)cc1", "note": "(stereo not drawn)", "hERG current change (%, negative = inhibition) at 10uM": 5.55},
      {"smiles": "CC(C)C1C(C#N)=C(N)Oc2n[nH]c(-c3ccc4ccccc4c3)c21", "note": "(stereo not drawn)", "hERG current change (%, negative = inhibition) at 10uM": 2.61},
      {"smiles": "c1ccc(-c2nnc(OCC3CCCO3)c3ccccc23)cc1", "note": "(stereo not drawn)", "hERG current change (%, negative = inhibition) at 10uM": -10.8},
      {"smiles": "Cc1ccc(NC(=O)N2CCCC2)cc1Cl", "hERG current change (%, negative = inhibition) at 10uM": 5.43},
      {"smiles": "Cc1ccc2nc(N(CCN(C)C)C(=O)/C=C/c3cccs3)sc2c1.Cl", "hERG current change (%, negative = inhibition) at 10uM": -40.3},
      {"smiles": "NC(=O)Cn1cc(C(=O)c2ccccc2F)c2ccccc21", "hERG current change (%, negative = inhibition) at 10uM": 25.1}
    ]}
  ]
}
